Measured values as given in the supplement of paper PMC11417369.
± gives the standard deviation of the averaged measurements. Some of the results follow.

system: PfAP2-LT AP2 domain (GST-tagged); experiment: gcPBM binding intensity (ln(normalized median fluorescence intensity)); higher = stronger DNA binding
How it was run: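 GST-tagged P. falciparum DNA-binding domains, expressed in E. coli (about 25 μg on average), were applied for 1 h to an Agilent 4 × 180k array of primer-extended double-stranded 36-bp intergenic genomic probes plus negative controls. The binding buffer was 1× PBS with 1% milk, 0.2 mg/ml BSA, 0.5% salmon testes DNA and 0.03% Triton X-100. Bound protein was detected with Alexa488 anti-GST antibody and scanned at 488 nm. Binding intensity is the highest Masliner-normalised natural-log median intensity across replicate spots of either probe orientation.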

Sequence	gcPBM binding intensity (ln)
AATTATTTTAAATATTGTACTATTACAGAATGGTGT [XGTACX_site5693]	8.78 ± 0.44
AGCAGACACCAACACACACACATATATATATATATA [CACACA_site337]	10.4 ± 0.13
CTCTAATTAATATTTGTACACACATATTTAACCTAC [CACACA_site9043]	9.13 ± 0.43
TCAAATTACGTAAGAACATGCGATATAAGAAATACG [TGCATGCA_site691]	8.95 ± 0.39
TAACTTTATTTTCCTGTACACACATTTGACATATTA [CACACA_site9116]	9.14 ± 0.34
TATATATTAATCAAAGTGCAATAATAAAATAAAAGT [GTGCAC_site9490]	9.05 ± 0.38
TTTATACAAAAGAACAGTACAATAAAGGATTTATGA [XGTACX_site811]	8.67 ± 0.47
AATAAAATATAAACATTATATATATATATATATATA [GTGCAC_negctrl_site58]	9.21 ± 0.2
ATTTTTTCTTTTTTTTTTCCGTTTTTTTGGACATTT [CACACA_negctrl_site1174]	8.72 ± 0.45
TAAAGGAGCCTATGAACACACACATGTACTTATATT [CACACA_site9351]	9.26 ± 0.38
AATTGTTTGTTTGGGTGTACATGGTTCTATATAAAT [XGTACX_site7940]	9.11 ± 0.4
ATAAAAAATAAATAAGGTACAGAACATTTATACATT [XGTACX_site1783]	8.92 ± 0.47
AAATTAAACAATAAATGTACATATATATTTGTATAT [XGTACX_site1092]	8.82 ± 0.49
AACAAGGTATTAGGGTGTACTATATATATTTATATT [XGTACX_site7776]	8.85 ± 0.33
TTTATTACCATATTTTGTACACACATCTTTATCTCA [XGTACX_site6842]	9.53 ± 0.63
CTTTTATTGCTCTATATGCACACCTTAATTCTTCAT [CACACA_site2195]	9.2 ± 0.52
GCAAAATTTCCTAAGGTGCTTTTATTTTACACCGTT [GTGCAC_site9923]	8.94 ± 0.38
AATGGGTTAGCACATACACACCAATATATTATAGAT [CACACA_site7444]	9.09 ± 0.48
AAAACCTAAAAGTCTTAAATTTTAAATATACCTACA [GTGCAC_negctrl_site492]	8.51 ± 0.41
TAATTTGAACGGTACAGTACTCTTTTTCTTTTTCAT [XGTACX_site5534]	8.76 ± 0.47
ATATATTTTTTCAATTGTACGTTTTAATAATATTTA [XGTACX_site2130]	8.73 ± 0.41
AATACAACATAATGAAGTACTGTATTTTATATTACT [XGTACX_site4885]	8.84 ± 0.49
TTTCTTTGAATAAATACACACGAGAAATGAAAGTAG [CACACA_site8490]	8.84 ± 0.43

Sequence	gcPBM binding intensity (ln)
ATGAAATCTTTAGAATATAGATGATGTTATTTAATT [XGTACX_negctrl_site511]	8.38 ± 0.38
ACTCTATACATCTAATGTACATGGAAAAAAAAATTC [XGTACX_site733]	8.69 ± 0.38
ACATTGACATGTCGAAGTACTCAAGAAGCATACAAT [XGTACX_site3948]	9.02 ± 0.47
ATATAAATGATATGTACACACATTTATATTTATAAA [CACACA_site7600]	8.87 ± 0.42
ATTAAAATGGTATGTGCGCACATAATATATATATGT [GTGCAC_site9572]	9.45 ± 0.4
TGGAAAATTATTAACACACACATATAAATATATATA [CACACA_site46]	9.17 ± 0.35
GTAATAAGAATTATAGTGCAATGTAATACATTTATA	8.72 ± 0.45
TTCTTACATAAAATATCACACACATAAAAAAACAAT [CACACA_site8576]	9.17 ± 0.34
ACAGTATCTGGTAGCTGTACGAGTCGTAGAGTGTAG [XGTACX_site2011]	9.09 ± 0.44
AAAATATAAAGTATTTGTACATAATATATTTTTAAA [XGTACX_site3494]	8.49 ± 0.57
TTCATTAATGTGTAATGTACTTGTAATATGGGATTA [XGTACX_site3903]	8.65 ± 0.34
AATATATAAATAAATATATAAATAAATAATTGAAGC [CACACA_negctrl_site348]	8.97 ± 0.47
CATTTTTTAATAATAGCACACAGGACATACAAAACA [CACACA_site1245]	9.02 ± 0.33
TATATATATTTATATGCATGTAATATATTTGTATTG [TGCATGCA_site323]	8.8 ± 0.38
TGTTCTCTTCTTTTTTATTTTCCAAAGTAATAAGTT [TGCATGCA_negctrl_site424]	8.47 ± 0.55
AATTATTTTATGAAAAGTACACATTGTTTTAATTCT [XGTACX_site4506]	8.61 ± 0.49
TAAATAAGTATTACTAGTACACACAAGTTGTTAATC [XGTACX_site7074]	8.93 ± 0.42
AGAAAAAAGAGGGATACACACAAACATATATATATA [CACACA_site5269]	9.79 ± 0.44
TTAATTATAATTATATGTACGAACTTTTTTTTTTTT [XGTACX_site6586]	8.43 ± 0.55
CATAAATCAGCCATAACACACATACATAAATACATA [CACACA_site4380]	9.36 ± 0.46
AAATTGATTATAAATTGTACAAGAACATACAACCTT [XGTACX_site5986]	8.77 ± 0.33
CAAAAGCGATACGGCACACATTTCCTGTTTAAATGA [CACACA_site5519]	8.99 ± 0.58
TTAATTTTTAGAAGAACACACACATATATATTATGA [CACACA_site7969]	8.87 ± 0.36

Sequence	gcPBM binding intensity (ln)
TTATATATTTTATTATTTATAATCTTTTTTTTATTT [CACACA_negctrl_site112]	8.54 ± 0.62
TTATATTTCAATTAAACATGCATTTTTGTGTAGCAC [TGCATGCA_site214]	8.66 ± 0.4
TCATATAGATTATACACACACATATATAGATATATA [CACACA_site6587]	9.27 ± 0.33
TTTATTTATGTTGAAACATGCAAAAAGTTATTTATA [TGCATGCA_site716]	8.23 ± 0.4
TTCAAAAGCCGGATAACATGCAGTAGTAGAACAAAC [TGCATGCA_site413]	9.16 ± 0.32
ACTCCATAATATTGATGTACTATAATGCATTTATTT [XGTACX_site5562]	9.06 ± 0.42
TTATAGAATTTATTTACACACAAACATTTATACTTT [CACACA_site7592]	8.95 ± 0.32
TATTTATTTTCATATAGTACTTTTTTCAGGCATATA [XGTACX_site6691]	8.6 ± 0.41
TGGTATATAAAACACACACACATATGTATTTATATA [CACACA_site4665]	9.44 ± 0.28
TTTTGCCTTTCTACTTGTACTTAAAATATTATAATT [XGTACX_site5483]	8.85 ± 0.41
TTGTTTTTTTTTTCTATAAGCATAAAAATGATATAA [XGTACX_negctrl_site356]	8.09 ± 0.35
TTTCTGTGTTTTGGTTGTACACACGCTACATTATAT [XGTACX_site5669]	9.6 ± 0.39
TTTATTTATTATTAAAGTACTAAATCATATAATTAT [XGTACX_site5727]	8.26 ± 0.51
AAATTAAAAAAATAATGTACATGTATTTATTATGTA [XGTACX_site2419]	8.74 ± 0.42
TTTTATTTCTTTGCACCATTTTAAATACAAACAAAT [CACACA_negctrl_site1553]	8.56 ± 0.43
AGTATTCACTTAATATGTACATATTTATTATAAGAG [XGTACX_site3434]	8.63 ± 0.4
GCTTTTAAAATAATTGGTACACATGTATAAATTCAA [XGTACX_site2327]	8.69 ± 0.46
TAAAACAATACTTTGTGCTTCTCTGGTTTTTTTTTT [GTGCAC_negctrl_site284]	8.62 ± 0.46
CACAAAAAGAAACACACACACATATATATATATATA [CACACA_site999]	10 ± 0.37
ATTCTAAATAATAAGAGTACAAATAATATGGAGAAG [XGTACX_site5209]	8.84 ± 0.38
TGCTCATTCCTGTCATGTACATATTATATATATATA [XGTACX_site6890]	9.14 ± 0.33
GAAAATATGTAATAGTGTACACATATATATGTATAT [XGTACX_site306]	9.07 ± 0.36
ATATGAACATTTACATGTACATGTAAATGTAACACT [XGTACX_site4574]	8.98 ± 0.34

Sequence	gcPBM binding intensity (ln)
CCCGTAAATTATGAGTGTACGTTATTTTTTAAAATG [XGTACX_site3946]	8.69 ± 0.4
ACATATACATATATATGTACATAAATATATATATAT [XGTACX_site8630]	9.06 ± 0.31
AATTATATATTTGAGAGTACATATGTAATGTTTATA [XGTACX_site6970]	8.79 ± 0.42
GTGCATATCTGATATACACACAATAAAATAGTATGT [CACACA_site7203]	9.19 ± 0.4
CATATATTATTTATACGTACTAATAAAATAAATCAA [XGTACX_site1030]	8.62 ± 0.45
TATGATACATAAATATGTACGTATAATATATATTTA [XGTACX_site7002]	8.78 ± 0.36
TGCAAGCTTATATAGGTGCACATGTATACGTGTTCA	9.24 ± 0.34
TATTAAAATTAAAAAAAAAAAAAAAAGCAATAAAAA [XGTACX_negctrl_site426]	8.22 ± 0.65
TATATACACAAACACACACACACATACACCCACATA [CACACA_site8504]	10.2 ± 0.16
TATGTAGTCACAAGGTGTACACTTTAACAAATTATG [XGTACX_site8792]	8.77 ± 0.38
TTCTAACTTTTAAACACACAAATATAAATAAGTATA [CACACA_site7473]	8.47 ± 0.36
GAACGTATCATGTGTACACACAAATTGTTTTTTTTT [CACACA_site2020]	9.31 ± 0.43
AAGAATAATAATAAATGTACACAATATTATATATAT [XGTACX_site5525]	8.86 ± 0.4
AAATGAACAAGTGGCACACACACATTATAACTAATT [CACACA_site9048]	9.43 ± 0.37
TATATAATTATAAGAACACACATATATATATATATA [CACACA_site2472]	9.6 ± 0.16
AAATTTGAAGAATATTGTACGCATAATAATTAAATA [XGTACX_site4300]	8.79 ± 0.46
TGTATGAAATATATTACACACATATAAAATCTATAT [CACACA_site6514]	8.96 ± 0.37
TTGATGTTGGTAGGATGTACGGTACCGGTAAAGTTT [XGTACX_site7705]	8.85 ± 0.43
TTTTTAATTTTTTGTTGTACATATAATATATTATTA [XGTACX_site4903]	8.54 ± 0.64
TATATATATATTTTAACACACACATATATATATTTA [CACACA_site8892]	9.07 ± 0.26
